Source: paper PMC4336329 (PLoS ONE, 2015)
The whole screen tested about 310,000 compounds, of which about 2,200 (0.71%) showed an effect of 50% or more. The effect is printed as a negative number. The list shows a part of the results.

Molecular target: human ether-à-go-go-related gene (hERG) potassium channel (human, UniProt Q12809)
Experiment: primary screen, population patch clamp on CHO cells stably expressing hERG

human ether-à-go-go-related gene (hERG) potassium channel, sequence (Q12809 whole entry, looked up): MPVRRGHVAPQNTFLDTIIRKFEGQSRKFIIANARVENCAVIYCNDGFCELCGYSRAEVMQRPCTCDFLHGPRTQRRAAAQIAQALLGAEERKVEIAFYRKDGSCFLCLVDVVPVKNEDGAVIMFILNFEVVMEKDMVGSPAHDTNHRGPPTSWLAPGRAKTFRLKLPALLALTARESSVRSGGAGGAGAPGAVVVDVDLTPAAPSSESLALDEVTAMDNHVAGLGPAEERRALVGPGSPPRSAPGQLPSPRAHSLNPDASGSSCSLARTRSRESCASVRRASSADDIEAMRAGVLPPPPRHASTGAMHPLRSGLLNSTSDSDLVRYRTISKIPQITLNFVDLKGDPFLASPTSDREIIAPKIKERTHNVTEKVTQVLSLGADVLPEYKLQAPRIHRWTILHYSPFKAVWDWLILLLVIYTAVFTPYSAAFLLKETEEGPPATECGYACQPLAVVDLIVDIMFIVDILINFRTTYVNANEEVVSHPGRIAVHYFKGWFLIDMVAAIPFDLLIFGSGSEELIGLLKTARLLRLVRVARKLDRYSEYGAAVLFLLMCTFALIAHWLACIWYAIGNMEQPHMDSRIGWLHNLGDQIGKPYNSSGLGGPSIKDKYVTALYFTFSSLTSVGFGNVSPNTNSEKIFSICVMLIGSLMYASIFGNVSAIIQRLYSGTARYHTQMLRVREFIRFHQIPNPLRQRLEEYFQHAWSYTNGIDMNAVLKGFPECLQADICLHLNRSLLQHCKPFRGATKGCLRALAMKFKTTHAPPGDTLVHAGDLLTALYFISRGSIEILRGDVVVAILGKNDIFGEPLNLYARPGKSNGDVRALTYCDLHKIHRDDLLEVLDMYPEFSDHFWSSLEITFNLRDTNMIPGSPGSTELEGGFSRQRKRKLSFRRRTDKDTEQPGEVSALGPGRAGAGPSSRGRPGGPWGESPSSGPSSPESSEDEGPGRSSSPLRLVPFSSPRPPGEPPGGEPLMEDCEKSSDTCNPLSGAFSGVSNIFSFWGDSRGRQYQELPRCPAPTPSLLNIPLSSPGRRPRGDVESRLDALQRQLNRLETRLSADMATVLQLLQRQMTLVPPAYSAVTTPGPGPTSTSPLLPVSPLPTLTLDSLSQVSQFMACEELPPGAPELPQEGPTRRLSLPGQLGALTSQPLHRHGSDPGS

| Compound | hERG current change (%, negative = inhibition) at 1uM [%] |
| --- | --- |
| COc1ccc(NC(=S)N2CCC(NC(=O)c3ccc(OC)cc3)CC2)cc1 | 11.3 |
| Cn1cccc1-c1nc2ccccc2n1Cc1ccccc1 | 1.48 |
| COc1cc(SC)ccc1C(=O)NCC1CCCO1 (centres unmarked) | 7.77 |
| CCOC(=O)c1c(NC(=O)CSc2ncnc3[nH]ncc23)sc2c1CCC(C)C2 (centres unmarked) | 4.51 |
| CCOC(=O)C(C)Sc1ncc(OC)c(=O)[nH]1 (centres unmarked) | 12.3 |
| O=c1nc(-c2ccccc2)c2cc(Cl)ccc2[nH]1 | -4.6 |
| Cc1ccccc1Nc1ncc(C#N)c(N)n1 | 13.1 |
| Cc1ccc(C(=O)OC(C)C(=O)NC(C)CCc2ccccc2)o1 (centres unmarked) | 8.71 |
| CCOC(=O)C1CCCN(S(=O)(=O)c2c(C)c(C)cc(C)c2C)C1 (centres unmarked) | 1.87 |
| CCc1ccc(N2CC(C(=O)NC3CCCCC3C)CC2=O)cc1 (centres unmarked) | 12.1 |
| COC(=O)CCCC1=CC2=CC(=O)C(C)(OC(=O)c3cccs3)C(=O)C2=CN1CCc1c[nH]c2ccccc12 (centres unmarked) | 19.5 |
| CC(=O)Nc1ccc(NC(=O)CSc2nnnn2-c2ccccc2F)cc1 | 12.7 |
| Cc1cccc(NC(=O)CCn2nc(C)cc2C)c1 | 8.58 |
| CCOC(=O)c1cnn(-c2nc3c(C)cccc3s2)c1C | 17 |
| Cc1ccc(NCC(=O)NNC2=NCCC2)c(C)c1 | 7.03 |
| CCOC(=O)N1CCN(C(=O)c2cnn3c(C(F)(F)F)cc(-c4cccs4)nc23)CC1 | 4.07 |
| CCc1ccc(CC(=S)N2CCOCC2)cc1 | 7.97 |
| N#Cc1c(N)nc2c(c1-c1ccccc1)CCC2 | 15.6 |
| COC(=O)c1c(-c2cccc(C)c2)csc1NC(=O)C1CCCO1 (centres unmarked) | 9.66 |
| C/C(=N/NC(=O)CN1CCN(Cc2ccccc2Cl)CC1)c1cccs1 | -5.01 |
| CCc1ccc(N2CC(C(=O)OCC(=O)c3c(N)n(CC(C)C)c(=O)n(C)c3=O)CC2=O)cc1 (centres unmarked) | 6.45 |
| COc1cccc(C(CC(=O)O)NS(=O)(=O)c2ccc3c(c2)N(C(C)=O)CC(C)O3)c1 (centres unmarked) | 16.3 |

| Compound | hERG current change (%, negative = inhibition) at 1uM [%] |
| --- | --- |
| COc1ccc(C(=O)c2ccc(N3CCOCC3)c([N+](=O)[O-])c2)cc1 | 5.42 |
| COc1ccc(/C=C/C(=O)N2c3ccccc3Sc3ccc(C(F)(F)F)cc32)cc1 | -0.476 |
| CCOc1ccccc1C(=O)NCC(=O)Nc1ncccc1C | 20.9 |
| Cc1c(N=Cc2ccco2)c(=O)n(-c2ccccc2)n1C | 5.78 |
| O=C(C[n+]1ccccc1)NNc1ccccc1.[Cl-] | 8.53 |
| CCOP(=S)(NN(Cc1ccccc1)C(=O)c1ccccc1)OCC | 11.9 |
| C=CCN1C(=O)C2(OCCCO2)c2cccc(C)c21 | 8.84 |
| Cc1ccc2sc(N(CCCN(C)C)C(=O)c3ccc(S(=O)(=O)N4CCOCC4)cc3)nc2c1C.Cl | -1.04 |
| CCOC(=O)C1=C(C)NC(C)=C(C(=O)OCC)C1c1ccc(O)cc1 | 14.7 |
| COc1ccccc1CNC(=O)C1CCN(S(=O)(=O)c2ccc3c(c2)OCCO3)CC1 | 10.7 |
| CCOC(=O)n1c(=O)n(C)c2ccc(Br)cc21 | 7.05 |
| O=C(c1ccc2ccccc2n1)N1CCN(c2ccccc2)CC1 | 11 |
| COc1cccc(NC(=O)N2CCN(c3nc(-c4cccc(OC)c4)cs3)CC2)c1 | 10.4 |
| O=C1c2ccccc2C(Nc2ccc(Cl)cn2)N1c1cccnc1 (centres unmarked) | 7.12 |
| CN(C)C=NC(=O)/C(C#N)=C/c1ccccc1 | 7.83 |
| COCCCNC(=O)CC(=O)N/N=C\c1ccc(SC)cc1 | 14.2 |
| CN(CC(=O)Nc1ccccc1Cl)C(=O)COC(=O)c1nc(Cl)ccc1Cl | 1.42 |
| Cc1ccc(NC(=O)CNCC2CCCCC2)cc1S(=O)(=O)N(C)C | 6.65 |
| COc1ccc(/C=N/Nc2ccccn2)cc1OC | 7.46 |
| COC(=O)Cc1cc(=O)[nH]c(/N=C(\N)Nc2ccccc2C)n1 | 4.74 |
| CCc1ccc(-c2cc(C(=O)Nn3cnnc3)c3ccccc3n2)cc1 | 14.2 |
| Cc1cc(C)n(CC(=O)NNC(=O)C2CC(=O)N(Cc3ccccc3Cl)C2)n1 (centres unmarked) | 3.89 |
